From the supplement of paper PMC7238544 come the findings set out here.

The structures appear in SMILES notation. Structures can show the parent of a compound that is named as a salt. ± gives the standard deviation of the averaged measurements. The list shows a part of the results.

Conditions in all cases: priming compound concentration 100 µM
The subject of experiment [1] is hAMSC donor 1. Kind of experiment: Hoechst total cell count ratio vs vehicle control; higher = more cells (less toxicity).
Experiment [2] concerns hAMSC donor 2. The experiment is described as above.
The test system of experiment [3] is hAMSC donor 1. Kind of experiment: transgenic luciferase activity (RLU/mg protein) fold change vs vehicle control (ratio); higher = more transgene expression.
Experiment [4] has as its system hAMSC donor 2. Described as above.
Experiment [5] has as its system hAMSC donor 1. Kind of experiment: transfection efficiency (EGFP+ cells / Hoechst count) fold change vs vehicle control (ratio); hAMSC are human adipose-derived mesenchymal stem cells given an EGFP-luciferase plasmid by lipofection; higher = enhanced transfection.
The test system of experiment [6] is hAMSC donor 2. The experiment is described as above.
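Throughout, for Hoechst total cell count ratio vs vehicle control: compound added 30 min before Lipofectamine 3000 lipoplex delivery, triplicate-well means expressed against DMSO vehicle control wells of the same 96-well plate.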
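Throughout, for transfection efficiency (EGFP+ cells / Hoechst count) fold change vs vehicle control: compounds added 30 min before Lipofectamine 3000 lipoplex transfection, triplicate means relative to DMSO vehicle wells on the same plate, luciferase RLU normalized to BCA total protein.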
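Throughout, for transgenic luciferase activity (RLU/mg protein) fold change vs vehicle control: compounds in DMSO added 30 min before Lipofectamine 3000 transfection of pEGFP-Luc in 96-well plates, values are means of triplicate wells over DMSO vehicle wells on the same plate.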

With `Cc1ccc(N(CC2=NCCN2)c2cccc(O)c2)cc1` [Phentolamine mono-hydrochloride], the “Hoechst total cell count ratio” value came out at 1.38 ± 0.12 with hAMSC donor 1 [1] and 1.39 ± 0.095 in the experiment on hAMSC donor 2 [2]. The transgenic luciferase activity in the experiment on hAMSC donor 1 [3] stood at 0.291 ± 0.094; with hAMSC donor 2 [4], 0.58 ± 0.039. The transfection efficiency in the experiment with hAMSC donor 1 [5] turned out to be 0.901 ± 0.11; with hAMSC donor 2 [6], 1.24 ± 0.14.
As to `C[C@]12C=CC(=O)C=C1CC[C@@H]1[C@@H]2C(=O)C[C@@]2(C)[C@H]1CC[C@]2(O)C(=O)CO` [Prednisone], the results for the “Hoechst total cell count ratio” value with hAMSC donor 1 [1] and in the experiment with hAMSC donor 2 [2] were 1.21 ± 0.12 and 1.16 ± 0.53, respectively. Besides, the transgenic luciferase activity in the experiment with hAMSC donor 1 [3] was 1.24 ± 0.36; with hAMSC donor 2 [4] it was 1.11 ± 0.034. Besides, the transfection efficiency is 1.55 ± 0.36 in the experiment with hAMSC donor 1 [5] and 0.997 ± 0.26 in the experiment with hAMSC donor 2 [6].
With `C[C@](N)(Cc1ccc(O)c(O)c1)C(=O)O` [Methyldopa], the “Hoechst total cell count ratio” value with hAMSC donor 1 [1] is 1.34 ± 0.14; in the experiment with hAMSC donor 2 [2], 0.973 ± 0.059. The transgenic luciferase activity with hAMSC donor 1 [3] came out at 2 ± 1.6; in the experiment on hAMSC donor 2 [4] it was 1.27 ± 0.46. For the same compound, the transfection efficiency is 1.42 ± 0.33 in the experiment on hAMSC donor 1 [5] and 1.08 ± 0.24 in the experiment on hAMSC donor 2 [6].
Take `COc1cc(CNC(=O)CCCC/C=C\C(C)C)ccc1O` [Zucapsaicin]: the “Hoechst total cell count ratio” value amounted to 0.845 ± 0.11 with hAMSC donor 1 [1] and 1.55 ± 0.81 in the experiment with hAMSC donor 2 [2]. Further, the values for the transgenic luciferase activity with hAMSC donor 1 [3] and with hAMSC donor 2 [4] were 0.571 ± 0.3 and 0.62 ± 0.26, respectively. Further, the figures for the transfection efficiency in the experiment with hAMSC donor 1 [5] and in the experiment with hAMSC donor 2 [6] were 1.09 ± 0.33 and 0.621 ± 0.1, respectively.
For `NS(=O)(=O)c1cc2c(cc1C(F)(F)F)NC(Cc1ccccc1)NS2(=O)=O` (stereo unspecified) [Bendrofluazide], the results for the “Hoechst total cell count ratio” value in the experiment with hAMSC donor 1 [1] and with hAMSC donor 2 [2] were 0.985 ± 0.041 and 0.933 ± 0.18, respectively. For the same compound, the transgenic luciferase activity in the experiment with hAMSC donor 1 [3] turned out to be 1.18 ± 0.13; in the experiment with hAMSC donor 2 [4] it was 0.949 ± 0.36. Moreover, the transfection efficiency with hAMSC donor 1 [5] is 0.638 ± 0.14; in the experiment on hAMSC donor 2 [6] it was 1.18 ± 0.2.
Turning to `OC(CCN1CCCCC1)(c1ccccc1)C1CCCCC1` (stereo unspecified) [Trihexyphenidyl hydrochloride], the “Hoechst total cell count ratio” value in the experiment with hAMSC donor 1 [1] turned out to be 1.21 ± 0.068; with hAMSC donor 2 [2] it was 1.8 ± 0.37. Moreover, the transgenic luciferase activity turned out to be 1.06 ± 0.23 with hAMSC donor 1 [3] and 1.76 ± 0.24 with hAMSC donor 2 [4]. Moreover, the transfection efficiency in the experiment with hAMSC donor 1 [5] is 0.986 ± 0.17; with hAMSC donor 2 [6], 0.777 ± 0.094.
As to `C[C@H](CS)C(=O)N1CCC[C@H]1C(=O)O` [Captopril], the “Hoechst total cell count ratio” value with hAMSC donor 1 [1] amounted to 1.27 ± 0.19; in the experiment on hAMSC donor 2 [2], 1.66 ± 0.28. Further, the transgenic luciferase activity with hAMSC donor 1 [3] was 0.862 ± 0.68; in the experiment with hAMSC donor 2 [4], 0.725 ± 0.11. The results for the transfection efficiency with hAMSC donor 1 [5] and in the experiment with hAMSC donor 2 [6] were 0.9 ± 0.13 and 0.758 ± 0.18, respectively.
For `CCN1CC(CCN2CCOCC2)C(c2ccccc2)(c2ccccc2)C1=O` (stereo unspecified) [Doxapram hydrochloride], the “Hoechst total cell count ratio” value with hAMSC donor 1 [1] was determined as 1.16 ± 0.083; in the experiment with hAMSC donor 2 [2], 1.71 ± 0.4. Besides, the values for the transgenic luciferase activity in the experiment with hAMSC donor 1 [3] and in the experiment with hAMSC donor 2 [4] were 0.638 ± 0.12 and 0.644 ± 0.035, respectively. Also, the transfection efficiency is 0.674 ± 0.13 with hAMSC donor 1 [5] and 0.704 ± 0.1 in the experiment on hAMSC donor 2 [6].
Turning to `CC1=Nc2ccc(Cl)cc2S(=O)(=O)N1` [Diazoxide], the “Hoechst total cell count ratio” value in the experiment with hAMSC donor 1 [1] is 1.24 ± 0.15; in the experiment with hAMSC donor 2 [2], 1.16 ± 0.044. Further, the transgenic luciferase activity with hAMSC donor 1 [3] is 0.987 ± 0.23; with hAMSC donor 2 [4], 0.819 ± 0.15. The transfection efficiency in the experiment on hAMSC donor 1 [5] came out at 1 ± 0.28; with hAMSC donor 2 [6] it was 0.743 ± 0.073.
Take `Cn1c(NCCN(CCO)CCCc2ccc([N+](=O)[O-])cc2)cc(=O)n(C)c1=O` [Nifekalant hydrochloride]: the figures for the “Hoechst total cell count ratio” value with hAMSC donor 1 [1] and in the experiment on hAMSC donor 2 [2] were 1.27 ± 0.32 and 1.25 ± 0.17, respectively. Besides, the transgenic luciferase activity with hAMSC donor 1 [3] was 0.599 ± 0.16; in the experiment on hAMSC donor 2 [4], 0.58 ± 0.13. The transfection efficiency amounted to 1.44 ± 0.23 in the experiment on hAMSC donor 1 [5] and 0.809 ± 0.17 in the experiment with hAMSC donor 2 [6].
Take `C=CC1=C(C(=O)O)N2C(=O)[C@@H](NC(=O)/C(=N\O)c3csc(N)n3)[C@H]2SC1` [Cefdinir]: the “Hoechst total cell count ratio” value with hAMSC donor 1 [1] was determined as 1.19 ± 0.32; in the experiment on hAMSC donor 2 [2], 0.614 ± 0.034. Besides, the transgenic luciferase activity was 0.547 ± 0.2 in the experiment with hAMSC donor 1 [3] and 0.357 ± 0.065 in the experiment on hAMSC donor 2 [4]. Moreover, the transfection efficiency with hAMSC donor 1 [5] came out at 0.962 ± 0.34; with hAMSC donor 2 [6], 0.769 ± 0.12.
